# Test results from PubChem BioAssay AID488969 (Vanderbilt High Throughput Screening Facility, 2010).
# Over roughly 110,000 compounds, “z-score” has its median near -0.1; the highest 2% begin near 2. This is one part of the list. Active and inactive are the calls of the source.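 Rule for the calls: active = z-score in the third read window above 3 or below -3; inactive = the rest.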
# Target: Metabotropic glutamate receptor 8 (Rattus norvegicus) (UniProt P70579)
# Assay: rat mGluR8 modulators via GIRK flux, primary screen, cell-based, thallium flux, HTS (AID 488969)
# Conditions: HEK293 rat mGluR8, GIRK (G protein-gated inwardly rectifying potassium channel) thallium flux, FluoZin2; at 10 µM; stronger effect = higher value; submaximal glutamate (EC20) added with thallium
# UniProt P70579, sequence (P70579 whole entry, looked up): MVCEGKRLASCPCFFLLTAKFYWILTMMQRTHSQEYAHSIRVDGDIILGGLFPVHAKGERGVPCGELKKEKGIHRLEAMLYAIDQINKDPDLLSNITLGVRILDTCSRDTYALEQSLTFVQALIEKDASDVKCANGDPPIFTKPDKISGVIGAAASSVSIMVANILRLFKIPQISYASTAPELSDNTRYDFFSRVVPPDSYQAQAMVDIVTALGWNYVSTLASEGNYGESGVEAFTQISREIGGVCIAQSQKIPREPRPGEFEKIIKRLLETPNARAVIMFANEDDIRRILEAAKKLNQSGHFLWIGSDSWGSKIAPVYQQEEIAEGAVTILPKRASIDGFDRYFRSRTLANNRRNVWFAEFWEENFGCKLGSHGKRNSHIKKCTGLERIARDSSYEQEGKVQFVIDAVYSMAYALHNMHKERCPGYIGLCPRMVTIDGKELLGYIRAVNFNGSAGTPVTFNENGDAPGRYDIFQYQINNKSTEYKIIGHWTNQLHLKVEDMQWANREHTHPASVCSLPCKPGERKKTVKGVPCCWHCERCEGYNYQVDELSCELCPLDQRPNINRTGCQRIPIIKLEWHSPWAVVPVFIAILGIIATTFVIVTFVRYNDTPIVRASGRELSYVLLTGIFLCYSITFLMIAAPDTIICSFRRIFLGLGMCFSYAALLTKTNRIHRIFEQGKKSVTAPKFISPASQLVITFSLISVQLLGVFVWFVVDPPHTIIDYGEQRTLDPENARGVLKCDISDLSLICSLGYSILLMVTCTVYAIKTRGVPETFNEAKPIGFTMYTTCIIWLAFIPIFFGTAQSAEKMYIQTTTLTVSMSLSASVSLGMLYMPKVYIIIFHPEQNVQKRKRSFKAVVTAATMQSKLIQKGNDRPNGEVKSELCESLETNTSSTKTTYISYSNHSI
row,SMILES,z-score
1,Cc1ccc(C(=O)NCc2ccc3c(c2)OCO3)cc1S(=O)(=O)N1CCOCC1,-0.0929
2,CC(=O)N(c1ccccc1)C1CCCC1,-0.00135
3,Cc1nc(SCC(=O)N(C)C2CCCCC2)[nH]c(=O)c1Cc1ccccc1,-2.29
4,Cc1c(Cl)cccc1N1C(=O)CC(N(O)c2ccccc2)C1=O (configuration not stated),-0.153
5,Cn1c(SCC(=O)NC2CCCCC2)nnc1-c1cc2ccccc2o1,-0.294
6,CCCc1cc(=O)n2[nH]c(-c3ccc(OC)cc3)nc2n1,-0.136
7,O=C(COc1ccccc1F)c1ccc(O)cc1O,0.0502
8,Cc1cc(NC(=O)C(C)(C)C)no1,-0.078
9,CCn1nc(C)cc1Nc1ccccc1,-0.0666
10,CN1/C(=C/C=N/NC(=O)c2ccc([N+](=O)[O-])cc2)C(C)(C)c2ccccc21,0.228
11,O=C(C1CCC1)N1CCc2cc(S(=O)(=O)NCC3COc4ccccc4O3)ccc21 (configuration not stated),0.767
12,COc1ccccc1OCC(=O)Nc1sc2c(c1C(=O)NCC1CCCO1)CCC2 (configuration not stated),active: -4.18
13,CCSc1nc(-c2ccco2)ccc1C#N,-0.085
14,COc1cccc(C(=O)CN(C(=O)c2ccc(Cl)c(Cl)c2)N2C(=O)C3CCCCC3C2=O)c1 (configuration not stated),-0.109
15,CC(=O)Nc1ccc2c(c1)C(=O)N(c1ccc(C)cc1)C2=O,-0.0778
16,COc1ccc(S(=O)(=O)N2Cc3ccccc3CC2C(=O)Nc2nccs2)cc1OC (configuration not stated),-0.212
17,Cc1cc(C)cc(OCC(=O)NN2Cc3ccccc3C2=N)c1,-0.183
18,CC(C)C(=O)NNS(=O)(=O)c1ccccc1[N+](=O)[O-],0.0767
19,O=C(Nc1ccc(F)cc1)c1sc2cc(C(F)(F)F)cnc2c1-c1cccs1,-0.442
20,CCC(=O)Nc1nnc(C(C)(C)C)s1,-0.429
21,COCCCn1c(SCC(=O)Nc2nc3ccccc3s2)nnc1-c1ccoc1C,0.611
22,FC(F)(F)c1cc(-c2ccccc2)nc(N2CCCCC2)n1,0.136
23,CCOc1ccc2nc(SCC(=O)c3ccccc3)sc2c1,0.303
24,O=C(c1ccc(Cl)c(F)c1F)N1CCOCC1,-0.0943

row,SMILES,z-score
1,Cc1ccc(SC(C)C(=O)Nc2ccc(S(=O)(=O)N3CCOCC3)cc2)cc1 (configuration not stated),active: 6.05
2,O=C(CCCCCN1C(=O)c2cccc3cccc(c23)C1=O)N1CCOCC1,-0.0211
3,O=C(/C=C/c1ccccc1)NC(=S)Nc1ccc(N2CCOCC2)cc1,-0.296
4,CCc1ccc(C(C(=O)NCCOC)N(C(=O)Cn2nnc3ccccc32)c2cccnc2)cc1 (configuration not stated),0.0587
5,CCCc1cc(-c2n[nH]c(=S)n2C(C)c2ccccc2)cs1 (configuration not stated),active: 10.9
6,CC1(C)NC(=O)N(CN2C(=O)NC(C)(C)C2=O)C1=O,-0.285
7,CCc1nc2ccccc2n1CCC(=O)O,-0.185
8,Cc1cccnc1NC(=O)c1ccccc1NC(=O)C(C)(C)C,0.177
9,Cc1ccccc1-c1nnc(-c2ccccc2C)o1,-0.381
10,COC(=O)CCCC[C@@H]1SC[C@@H](NC(=O)OC)[C@@H]1NC(=O)OC,-0.0528
11,CC(C)CC1(C)NC(=O)N(CCN2C(=O)c3ccccc3C2=O)C1=O (configuration not stated),0.055
12,COC(=O)CN(n1cnnc1)S(=O)(=O)c1ccccc1Cl,-0.315
13,Cc1ccc(-c2[nH]c(-c3ccc(C(=O)O)cc3)nc2-c2ccccc2)cc1,-0.218
14,O=C(CNC(=O)/C(=C\c1ccc(Br)cc1)NC(=O)c1ccccc1)OCc1ccccc1,-0.328
15,O=C(Nc1ccc2oc(-c3ccncc3)nc2c1)c1cccs1,-1.18
16,COc1ccc(N(C(=O)C(C)C)S(=O)(=O)c2ccc(Cl)cc2)cc1,-0.275
17,Cc1ccc2c(c1)C1CCCC3C1N2CC(=O)N3Cc1ccccc1 (configuration not stated),-0.338
18,Cc1ccc(NC(=O)c2ccc3c(c2)OCCO3)cc1,0.675
19,COc1cc(C2c3sc(=O)[nH]c3SC3C4CCC(C4)C23)ccc1O (configuration not stated),-1.7
20,CC(/C=N/n1c(-c2ccco2)n[nH]c1=S)=C\c1ccccc1,active: 5.91
21,CCOC(=O)N1CCN(CC(=O)Nc2ccc(C)cc2)CC1,-0.212
22,Cc1ccc(SCCNC(=S)Nc2cc(C)cc(C)c2)cc1,-0.391
23,COc1ccc(C2SCCN2C(=S)Nc2cccc(Cl)c2)cc1 (configuration not stated),0.287
24,Cc1ccc(N2CCOCC2)c2c1C(=O)c1ccccc1C2=O,-0.113

row,SMILES,z-score
1,CCCC(CCC(=O)Nc1ccc(C(=O)OCC)cc1)C(=O)O (configuration not stated),-0.53
2,COc1ccccc1N1CC(C(=O)Nc2nnc(SCc3ccccn3)s2)CC1=O (configuration not stated),0.243
3,O=S(=O)(c1cnc(Cl)c(Cl)c1)N1CCCc2ccccc21,-0.611
4,Cc1c(C=O)cnn1CCC(=O)O,-0.0719
5,CCn1cc(Br)c(C(=O)Nc2ccc(OC)cc2)n1,-0.389
6,CN(C)CCCNC(=O)c1ccc(-c2nc(-c3ccc(Cl)cc3)cs2)cc1,active: 3.28
7,Cc1cc(C(=O)COC(=O)C2=NNC(=O)CC2)c(C)n1-c1ccc(OC(F)F)cc1,0.286
8,NC(=O)CSc1nc2ccccc2n1Cc1ccccc1,-0.072
9,CNC(=O)CN(c1cc([N+](=O)[O-])ccc1OC)S(C)(=O)=O,-0.226
10,FC(F)(F)c1nc(N2CCCC2)ncc1-c1nnnn1-c1ccc(Cl)cc1,-0.207
11,O=C(CCN1C(=O)c2ccccc2C1=O)Nc1ccccc1C(=O)N1CCOCC1,-0.292
12,Cc1csc2ncc(C(=O)N3c4ccccc4CC3C)c(=O)n12 (configuration not stated),1.13
13,Cc1[nH]n(-c2ccc([N+](=O)[O-])cc2)c(=O)c1N=Nc1nc2ccccc2s1,2.47
14,Fc1cccc(COc2ccccc2CNc2ccccc2)c1,0.0246
15,C/C(N)=C(/C#N)C(=O)CSc1nnc(Cc2ccccc2F)n1N,0.932
16,COC(=O)c1[nH]c2cccc(OC)c2c1NC(=O)CCN1CC(C)CC(C)C1 (configuration not stated),-0.111
17,c1ccc(-c2oc3ncnc(N4CCOCC4)c3c2-c2ccccc2)cc1,-0.455
18,O=C(c1nc2nc(-c3ccc(Cl)cc3)cc(C(F)(F)F)n2n1)N1CCOCC1,-0.484
19,CCOC(=O)N1CCN(C(=O)c2cc(-c3ccc(F)cc3)[nH]c2C)CC1,-1.27
20,Cc1csc(SCc2nnc(-c3ccccc3Br)o2)n1,-0.633
21,Cc1ccc(/C=C(/NC(=O)c2ccccc2)C(=O)NCCc2c[nH]c3ccccc23)o1,-0.272
22,CCOC(=O)C1=C(c2ccccc2)NC(SCC)=C(C#N)C1c1cccnc1 (configuration not stated),-0.583
23,COC(=O)c1cc(=O)nc2sc3ccccc3n12,0.125
24,CCn1c(Cc2ccccc2)nnc1SCC(=O)Nc1ccc(C)cc1,-0.0912
